Results taken from article PMC4336329 (PLoS ONE, 2015).
Screen size: about 310,000 compounds; about 2,200 (0.71%) showed an effect of 50% or more. Effects have a minus sign here. The list shows a part of the results.

Target: human ether-à-go-go-related gene (hERG) potassium channel (human, UniProt Q12809)
Experiment: primary screen, population patch clamp on CHO cells stably expressing hERG

human ether-à-go-go-related gene (hERG) potassium channel, sequence (Q12809 whole entry, looked up): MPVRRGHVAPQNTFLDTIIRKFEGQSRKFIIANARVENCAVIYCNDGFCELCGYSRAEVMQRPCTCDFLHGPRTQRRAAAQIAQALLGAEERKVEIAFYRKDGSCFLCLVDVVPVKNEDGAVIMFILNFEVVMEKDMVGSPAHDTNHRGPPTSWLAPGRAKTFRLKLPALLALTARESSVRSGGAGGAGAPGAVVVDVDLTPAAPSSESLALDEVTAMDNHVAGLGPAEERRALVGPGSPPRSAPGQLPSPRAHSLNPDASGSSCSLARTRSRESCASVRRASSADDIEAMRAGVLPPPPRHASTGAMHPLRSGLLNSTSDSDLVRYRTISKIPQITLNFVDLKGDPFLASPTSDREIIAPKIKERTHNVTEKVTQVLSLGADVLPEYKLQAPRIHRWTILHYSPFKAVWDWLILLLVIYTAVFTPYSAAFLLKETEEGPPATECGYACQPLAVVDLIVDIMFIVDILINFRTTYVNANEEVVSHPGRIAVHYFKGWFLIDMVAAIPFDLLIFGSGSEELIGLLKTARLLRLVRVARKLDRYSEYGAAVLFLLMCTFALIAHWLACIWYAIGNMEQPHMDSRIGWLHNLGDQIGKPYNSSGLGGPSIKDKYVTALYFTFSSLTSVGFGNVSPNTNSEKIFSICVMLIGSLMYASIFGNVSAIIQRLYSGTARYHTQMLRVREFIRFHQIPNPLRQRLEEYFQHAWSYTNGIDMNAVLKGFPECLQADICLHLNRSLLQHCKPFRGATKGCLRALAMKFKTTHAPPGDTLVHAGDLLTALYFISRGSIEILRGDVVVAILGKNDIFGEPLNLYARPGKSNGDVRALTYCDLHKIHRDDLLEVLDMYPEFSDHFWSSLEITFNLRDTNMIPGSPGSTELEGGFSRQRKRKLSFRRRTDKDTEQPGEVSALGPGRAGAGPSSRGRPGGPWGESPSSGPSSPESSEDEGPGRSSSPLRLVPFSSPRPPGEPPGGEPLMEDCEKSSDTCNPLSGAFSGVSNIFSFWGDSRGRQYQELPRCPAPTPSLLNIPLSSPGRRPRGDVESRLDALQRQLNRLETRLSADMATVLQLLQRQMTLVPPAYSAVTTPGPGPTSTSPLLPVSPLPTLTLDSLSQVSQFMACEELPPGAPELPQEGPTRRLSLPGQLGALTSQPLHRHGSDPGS

First: O=C1CN(C(=O)CNCc2ccc(Cl)cc2)c2ccccc2N1
Second: O=C(Nc1ccc(Cl)cn1)C1CCCN1S(=O)(=O)c1ccccc1 (centres unmarked)
The “hERG current change (%, negative = inhibition) at 1uM” value of the first is higher: 7.02% for the first, 2.67% for the second.

First: Cc1ccc2c(c1)c1c(n2CC(O)CN2CCC(C)CC2)CCCC1 (centres unmarked)
Second: CC1CCN(CCC(=O)Nc2ccc3c(c2)OCCO3)CC1.O=C(O)C(=O)O
The “hERG current change (%, negative = inhibition) at 1uM” value of the first is lower: -22.5% for the first, 32.4% for the second.

Compared with CCN(CC)c1ccc(/C=N/N(c2ccccc2)c2ccccc2)c(O)c1, C=CCNC(=S)NN(c1ccccc1)c1ccccc1 is lower in “hERG current change (%, negative = inhibition) at 1uM” value: 10.3% for the first, 8.76% for the second.

Going from Cc1ccc(C)c(S(=O)(=O)Nc2ccc(C(=O)NCC(c3ccco3)N3CCCCC3)cc2)c1 (centres unmarked) to COc1ccc(CSCC(=O)Nc2ccc(S(=O)(=O)N3CCCCCC3)cc2)cc1, the “hERG current change (%, negative = inhibition) at 1uM” value rises from -6.15% to 4%.

Compared with CCCCC(CC)CNC(=O)c1cccs1 (centres unmarked), O=C(c1cccs1)N1CCCc2ccccc21 is lower in “hERG current change (%, negative = inhibition) at 1uM” value: 6.99% for the first, -10.4% for the second.

Going from CCOCCOC(=O)C1=C(C)N(C)C(=O)NC1c1ccccc1Cl (centres unmarked) to Cc1sc(N)c(C(=O)c2ccccc2Cl)c1C, the “hERG current change (%, negative = inhibition) at 1uM” value falls from 15.4% to 8.67%.

Going from Oc1ccc(CN2CCN(c3ncccn3)CC2)cc1 to CCOc1ccc2nc(N3CCC(C(=O)N4CCN(c5ncccn5)CC4)CC3)sc2c1, the “hERG current change (%, negative = inhibition) at 1uM” value falls from 11% to 4.83%.

Compared with COc1ccc(CNC(=O)C2CC(C)=CCC2C(=O)O)cc1 (centres unmarked), COc1ccc(-c2nc(CCl)cs2)cc1.Cl is lower in “hERG current change (%, negative = inhibition) at 1uM” value: 9.45% for the first, 8.51% for the second.

First: O=C(CN1CCOCC1)NCC(=O)Nc1ccc(Br)cc1C(=O)c1ccccc1
Second: CC(Sc1ccccc1)C(=O)Nc1ccc(N2CCOCC2)cc1 (centres unmarked)
The “hERG current change (%, negative = inhibition) at 1uM” value of the first is lower: -20% for the first, 3.78% for the second.

First: CC(OC(=O)Cn1cnc2c1c(=O)n(C)c(=O)n2C)C(=O)NC(C)c1ccc(Cl)cc1Cl (centres unmarked)
Second: O=C(CSCc1ccc(Cl)c(Cl)c1)Nc1c[nH]c(=O)[nH]c1=O
The “hERG current change (%, negative = inhibition) at 1uM” value of the first is lower: 6.98% for the first, 20% for the second.

Compared with Cc1ccc(N(CC(=O)NC2CCC(C)CC2)S(=O)(=O)c2cccnc2)cc1 (centres unmarked), C/C(=N\NC(=O)CN(c1ccccc1)S(C)(=O)=O)c1ccccc1O is higher in “hERG current change (%, negative = inhibition) at 1uM” value: 6.88% for the first, 8.18% for the second.

Going from O=C(CN(Cc1ccco1)C(=O)CNS(=O)(=O)c1ccc(F)cc1)NCc1ccccc1 to O=C(Nc1ccccc1C(=O)NCc1cccnc1)c1ccco1, the “hERG current change (%, negative = inhibition) at 1uM” value rises from 1.5% to 6.43%.

First: Oc1c(C=C2N=c3ccccc3=N2)sc(=S)n1C1CCCC1
Second: Cn1c(CSc2nc3ccccc3s2)n[nH]c1=S
The “hERG current change (%, negative = inhibition) at 1uM” value of the first is lower: 8.93% for the first, 14.9% for the second.

Going from NC(=O)c1ccsc1NC(=O)COC(=O)CCOc1ccccc1 to CCOC(=O)c1cc(-c2ccccc2)sc1NC(=O)COC(=O)c1ccc(Cl)c(S(N)(=O)=O)c1, the “hERG current change (%, negative = inhibition) at 1uM” value falls from 7.97% to 5.17%.

Compared with COC(CN(C)C(=O)C1CCCN(S(=O)(=O)c2ccc3c(c2)oc(=O)n3C)C1)OC (centres unmarked), COc1ccc(C2=CC3=C(Br)C(=O)C(C)(OC(=O)C4CCCC4)C(=O)C3=CO2)cc1 (centres unmarked) is lower in “hERG current change (%, negative = inhibition) at 1uM” value: 19.8% for the first, 10.1% for the second.

Compared with CCOc1ccc(C2C(C(=O)c3ccc(C)o3)=C(O)C(=O)N2CCCN(CC)CC)cc1 (centres unmarked), C/C(=N\NC(=O)c1cc2ccccc2cc1O)c1ccc(C)o1 is lower in “hERG current change (%, negative = inhibition) at 1uM” value: 12.1% for the first, 10.6% for the second.

Going from Cc1ccc(C(=O)CSc2nnc(-c3snnc3C)n2C2CC2)cc1 to Cc1cc(C(=O)CSc2nnc(-c3cccnc3)n2-c2ccccc2F)c(C)n1C, the “hERG current change (%, negative = inhibition) at 1uM” value falls from 13.7% to -1.28%.

Compared with Cc1onc(-c2ccccc2)c1C(=O)NCC1COc2ccccc2O1 (centres unmarked), O=C(NCc1ccco1)c1cc(-c2ccccc2)nc2ccccc12 is higher in “hERG current change (%, negative = inhibition) at 1uM” value: 1.02% for the first, 8.77% for the second.

First: COc1ccccc1CNC(=O)N1CCN(c2ccccc2)CC1
Second: COc1ccccc1N1CCN(S(=O)(=O)CCNC(=O)c2ccccc2Br)CC1
The “hERG current change (%, negative = inhibition) at 1uM” value of the first is lower: 2.54% for the first, 11.6% for the second.

Going from CCOC(=O)C(C)(C)N(Cc1ccc(Cl)cc1)S(=O)(=O)c1ccc(Cl)c([N+](=O)[O-])c1 to CN(C)S(=O)(=O)c1ccc(C(=O)OCCCN=C2NS(=O)(=O)c3ccccc32)cc1, the “hERG current change (%, negative = inhibition) at 1uM” value falls from 13.2% to -5.83%.

First: Cc1ccc(C(C)(C)C)cc1S(=O)(=O)Nc1nc2ccccc2nc1Cl
Second: CCn1c(=O)n(CC)c2cc(S(=O)(=O)Nc3ccccc3C)c(C)cc21
The “hERG current change (%, negative = inhibition) at 1uM” value of the first is lower: -16.8% for the first, 11% for the second.

First: COc1cccc(-c2cc(C(F)(F)F)n3nc(C(=O)Nc4c(C)n(C)n(-c5ccccc5)c4=O)cc3n2)c1
Second: Cc1cccc(C)c1NC(=S)Nc1c(C)n(C)n(-c2ccccc2)c1=O
The “hERG current change (%, negative = inhibition) at 1uM” value of the first is higher: 9.18% for the first, 2.99% for the second.

Compared with CC(Sc1ncn[nH]1)C(=O)Nc1cc(C(F)(F)F)ccc1Cl (centres unmarked), N/C(=N\c1nc(C(F)(F)F)cc(=O)[nH]1)Nc1ccc(Cl)cc1 is lower in “hERG current change (%, negative = inhibition) at 1uM” value: 9.43% for the first, 0.337% for the second.

Going from Cc1cccn2c(=O)c3cc(C(=O)NCC4CCCO4)c(=N)n(Cc4cccnc4)c3nc12 (centres unmarked) to Cc1ccccc1Cn1c(=O)sc2ccccc2c1=O, the “hERG current change (%, negative = inhibition) at 1uM” value rises from -96.3% to 11.3%.

First: CCOC(=O)CSc1nnc(NCC(=O)OC(C)C)c(=O)[nH]1
Second: COc1cc(NC(=O)CSc2nnc3c(n2)[nH]c2ccc(S(=O)(=O)NC(C)C)cc23)cc(OC)c1OC
The “hERG current change (%, negative = inhibition) at 1uM” value of the first is higher: 13.5% for the first, 7.39% for the second.

Compared with CCc1cc(C(=O)O)c(NC(=O)/C=C/c2ccc(OC)c(OC)c2)s1, COc1ccc(C2(CNC(=O)c3ccccc3)CCCC2)cc1OC is lower in “hERG current change (%, negative = inhibition) at 1uM” value: 33.4% for the first, 5.36% for the second.

Compared with CCCN(CC(=O)Nc1ccc(C(N)=O)cc1)CC(=O)Nc1ccccc1C, O=C(CCC(=O)c1ccc(F)cc1)Nc1cccnc1 is lower in “hERG current change (%, negative = inhibition) at 1uM” value: 15.4% for the first, 12.8% for the second.

Compared with Cc1ccccc1OCCSc1nc2ccccc2n1CCC(=O)O, COc1ccc2nc(NC(=O)CSc3ccccc3)sc2c1 is lower in “hERG current change (%, negative = inhibition) at 1uM” value: 8.07% for the first, -3.66% for the second.

Compared with Cc1ccc2c(C)c(C(=O)N(Cc3ccc(N(C)C)cc3)C3CCS(=O)(=O)C3)oc2c1 (centres unmarked), Cc1ccc(Cc2nc(-c3cccc(C)c3)no2)cc1 is higher in “hERG current change (%, negative = inhibition) at 1uM” value: 8.54% for the first, 16.5% for the second.

Compared with CC(=O)N1CCC(N2CCCC(C(=O)c3cccc(Cl)c3)C2)CC1 (centres unmarked), O=C(c1cccc(S(=O)(=O)Nc2cccc(C(F)(F)F)c2)c1)N1CCOCC1 is higher in “hERG current change (%, negative = inhibition) at 1uM” value: 3.34% for the first, 4.23% for the second.

First: Cc1cccc(/C(N)=N/OC(=O)Cc2cccs2)c1
Second: COc1ccc(C2C(C(N)=O)=C(C)Nc3nc(-c4cccc(Cl)c4)nn32)cc1OC (centres unmarked)
The “hERG current change (%, negative = inhibition) at 1uM” value of the first is lower: 6.61% for the first, 7.76% for the second.

Going from CCN1C(=O)[C@H]2[C@@H](c3ccc(C)cc3)N3C(=O)N(c4cccc(Cl)c4)C(=O)[C@@]3(Cc3ccccc3)[C@H]2C1=O to CCOc1ccc(Br)cc1S(=O)(=O)Nc1cccc(S(=O)(=O)N(C)c2ccccc2)c1, the “hERG current change (%, negative = inhibition) at 1uM” value rises from 11.4% to 11.7%.

Going from O=C(Nc1nc(=O)c2ccccc2s1)c1ccccc1 to O=C(CCSc1nnc2scc(-c3ccccc3)n12)Nc1nc(-c2ccccc2)ns1, the “hERG current change (%, negative = inhibition) at 1uM” value rises from -1.73% to 8.51%.

Going from CCc1ccccc1N1CC(C(=O)Nc2cc(C)on2)CC1=O (centres unmarked) to CCC1(CC)NC(=O)N(CC(=O)NC(=O)NCc2ccccc2)C1=O, the “hERG current change (%, negative = inhibition) at 1uM” value rises from 2.08% to 14.7%.

First: Cc1ccc(S(=O)(=O)N/N=C/C(C)(C)CO)cc1
Second: COc1ccccc1/C=C/C(=O)Nc1ccc(S(=O)(=O)Nc2cc(C)nc(C)n2)cc1
The “hERG current change (%, negative = inhibition) at 1uM” value of the first is lower: 8.87% for the first, 12% for the second.

First: CC(=O)N[C@@H]1[C@@H](O)[C@@H]2OC(c3ccccc3)OC[C@H]2O[C@@H]1N=[N+]=[N-] (some centres unmarked)
Second: Cc1c(NC2(C#N)CCCCC2)c(=O)n(-c2ccccc2)n1C
The “hERG current change (%, negative = inhibition) at 1uM” value of the first is lower: 13.7% for the first, 14.3% for the second.

First: O=Cc1c(-c2ccc(F)cc2)nc2ccccn12
Second: Nc1cccc(-c2nc3ccccc3[nH]2)c1
The “hERG current change (%, negative = inhibition) at 1uM” value of the first is lower: 7.15% for the first, 8.94% for the second.

Compared with N#CCCn1cc(C(=O)O)c(-c2cc3ccccc3o2)n1, COc1ccc(C(O)c2nccn2Cc2ccccc2)cc1 (centres unmarked) is lower in “hERG current change (%, negative = inhibition) at 1uM” value: 22.2% for the first, 9.44% for the second.

Going from O=C(NC(=O)c1ccccc1F)Nc1nc(-c2cccs2)cc(C(F)(F)F)n1 to CC(C)(C)C(=O)Nc1ccccc1C(=O)Nc1ccncc1, the “hERG current change (%, negative = inhibition) at 1uM” value rises from 2.15% to 14.1%.

Compared with CCC(C)c1ccc(OCC(=O)Nc2ccc3c(c2)C(=O)NC3=O)cc1 (centres unmarked), COc1ccc(C2=CC(c3cccc(OC)c3)n3nnnc3N2)cc1 (centres unmarked) is higher in “hERG current change (%, negative = inhibition) at 1uM” value: 13.5% for the first, 13.9% for the second.

Going from COc1cc(/C=N/NC(=O)c2cccnc2)ccc1OC(=O)c1ccc([N+](=O)[O-])cc1 to COc1ccc2[nH]c(=O)c(CN(Cc3ccco3)C(c3nnnn3Cc3ccccc3)C(C)C)cc2c1 (centres unmarked), the “hERG current change (%, negative = inhibition) at 1uM” value falls from 14.3% to 5.65%.

Compared with Cc1cc(C)cc(NS(=O)(=O)c2csc(C(N)=O)c2)c1, CCN(CC)C(=O)CS(=O)(=O)CC(=O)Nc1cc(OCCOC)c(Cl)cc1Cl is lower in “hERG current change (%, negative = inhibition) at 1uM” value: 15.1% for the first, 9.99% for the second.

Compared with CCCCN(CCCNC(=O)CN1C(=O)COc2ccccc21)c1ccccc1, CSc1ccc(/C=C/C(=O)OCC(=O)NC2CCS(=O)(=O)C2)cc1 (centres unmarked) is higher in “hERG current change (%, negative = inhibition) at 1uM” value: 3.47% for the first, 8.73% for the second.
